System: recA promoter-LuxCDABE in wild-type M. abscessus subsp. abscessus ATCC 19977
Assay: recA DNA damage reporter assay
Conditions: wild-type background, 4 h, luminescence

SMILES | recA promoter-dependent reporter expression
CC[C@H]1OC(=O)[C@H](C)[C@@H](O[C@H]2C[C@@](C)(OC)[C@@H](O)[C@H](C)O2)[C@H](C)[C@@H](O[C@@H]2O[C@H](C)C[C@H](N(C)C)[C@H]2O)[C@](C)(OC)C[C@@H](C)C(=O)[C@H](C)[C@@H](O)[C@]1(C)O [CLR, clarithromycin] | did not cause any increase
COc1c(N2C[C@@H]3CCCN[C@@H]3C2)c(F)cc2c(=O)c(C(=O)O)cn(C3CC3)c12 [MXF, moxifloxacin] | strongly induced
CCNC(=O)Nc1nc2cc(-c3cnc(C(C)(C)O)nc3)c(F)c([C@H]3CCCO3)c2[nH]1 [SPR719] | only a weak increase

Reference: publication PMC8284461, “Piperidine-4-Carboxamides Target DNA Gyrase in Mycobacterium abscessus” (Antimicrobial Agents and Chemotherapy, 2021)
